Measured values as given in the supplement of paper PMC8728848.
The list shows a part of the results.

Columns and labels:
Assay in all cases: glycan array binding signal (z-score within array); higher = stronger binding
Settings in all cases: glycan notation: IUPAC condensed, linker removed
[1] = biological target: Fuc(a1-2)[Gal(a1-4)]Gal(b1-4)GlcNAc
In short: (§1)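 Glycan array data were curated from 3228 arrays in the Consortium for Functional Glycomics database and kept only where the protein sequence was available. Glycan names were converted to IUPAC-condensed notation, and columns mapping to the same glycan were averaged. The binding signal is a within-array Z-score, averaged across arrays of the same protein sequence at different concentrations or buffers and across linkers. Negative Z-scores can be read as non-binding.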

[2] = biological target: Fuc(a1-2)[GalNAc(a1-3)]Gal
In short: as §1

[3] = biological target: Fuc(a1-2)[GalNAc(a1-3)]Gal(b1-3)GalNAc(a1-3)[Fuc(a1-2)]Gal(b1-4)GlcNAc
In short: as §1

[4] = biological target: Fuc(a1-2)[GalNAc(a1-3)]Gal(b1-3)GlcNAc
In short: as §1

[5] = biological target: Fuc(a1-2)[GalNAc(a1-3)]Gal(b1-3)GlcNAc(b1-2)Man(a1-3)[Fuc(a1-2)[GalNAc(a1-3)]Gal(b1-3)GlcNAc(b1-2)Man(a1-6)]Man(b1-4)GlcNAc(b1-4)GlcNAc
In short: as §1

[6] = biological target: Fuc(a1-2)[GalNAc(a1-3)]Gal(b1-4)Glc
In short: as §1

[7] = biological target: Fuc(a1-2)[GalNAc(a1-3)]Gal(b1-4)GlcNAc
In short: as §1

[8] = biological target: Fuc(a1-2)[GalNAc(a1-3)]Gal(b1-4)GlcNAc(b1-2)Man(a1-3)[Fuc(a1-2)[GalNAc(a1-3)]Gal(b1-4)GlcNAc(b1-2)Man(a1-6)]Man(b1-4)GlcNAc(b1-4)GlcNAc
In short: as §1

[9] = biological target: Fuc(a1-2)[GalNAc(a1-3)]Gal(b1-4)GlcNAc(b1-3)Gal(b1-4)GlcNAc
In short: as §1

[10] = biological target: Fuc(a1-2)[GalNAc(a1-3)]Gal(b1-4)GlcNAc(b1-3)Gal(b1-4)GlcNAc(b1-3)Gal(b1-4)GlcNAc
In short: as §1

[11] = biological target: Fuc(a1-2)[GalNAc(a1-3)]Gal(b1-4)[Fuc(a1-3)]GlcNAc
In short: as §1

[12] = biological target: Fuc(a1-2)[GalNAc(a1-4)]Gal(b1-4)GlcNAc
In short: as §1

[13] = biological target: Fuc(a1-2)[GalNAc(b1-3)]Gal
In short: as §1

[14] = biological target: Fuc(a1-3)GlcNAc
In short: as §1

[15] = biological target: Fuc(a1-3)[Gal(b1-4)]Glc6S
In short: as §1

[16] = biological target: Fuc(a1-3)[Gal(b1-4)]GlcNAc
In short: as §1

[17] = biological target: Fuc(a1-3)[Gal(b1-4)]GlcNAc(b1-2)Man(a1-3)[Fuc(a1-3)[Gal(b1-4)]GlcNAc(b1-2)Man(a1-6)]Man(b1-4)GlcNAc(b1-4)GlcNAc
In short: as §1

[18] = biological target: Fuc(a1-3)[Gal(b1-4)]GlcNAc(b1-3)Gal(b1-3)[Fuc(a1-4)]GlcNAc
In short: as §1

[19] = biological target: Fuc(a1-3)[Gal(b1-4)]GlcNAc(b1-3)GalNAc
In short: as §1

[20] = biological target: Fuc(a1-3)[Gal(b1-4)]GlcNAc(b1-4)Gal(b1-4)[Fuc(a1-3)]GlcNAc
In short: as §1

[21] = biological target: Fuc(a1-3)[Gal(b1-4)]GlcNAc(b1-4)Gal(b1-4)[Fuc(a1-3)]GlcNAc(b1-4)Gal(b1-4)[Fuc(a1-3)]GlcNAc
In short: as §1

[22] = biological target: Fuc(a1-3)[Gal(b1-4)]GlcNAc(b1-6)[Gal(b1-3)GlcNAc(b1-3)]Gal(b1-4)Glc
In short: as §1

[23] = biological target: Fuc(a1-3)[Gal(b1-4)]GlcNAc6S
In short: as §1

[24] = biological target: Fuc(a1-3)[Gal3S(b1-4)]GlcNAc
In short: as §1

[25] = biological target: Fuc(a1-3)[Gal3S(b1-4)]GlcNAc6S
In short: as §1

[26] = biological target: Fuc(a1-3)[GalNAc(b1-4)]GlcNAc
In short: as §1

[27] = biological target: Fuc(a1-4)GlcNAc
In short: as §1

[28] = biological target: Fuc(b1-3)GlcNAc
In short: as §1

[29] = biological target: Gal(a1-2)Gal
In short: as §1

[30] = biological target: Gal(a1-3)Gal
In short: as §1

[31] = biological target: Gal(a1-3)Gal(b1-3)GlcNAc
In short: as §1

[32] = biological target: Gal(a1-3)Gal(b1-3)GlcNAc(b1-2)Man(a1-3)[Gal(a1-3)Gal(b1-3)GlcNAc(b1-2)Man(a1-6)]Man(b1-4)GlcNAc(b1-4)GlcNAc
In short: as §1

[33] = biological target: Gal(a1-3)Gal(b1-3)[Fuc(a1-4)]GlcNAc(b1-2)Man(a1-3)[Gal(a1-3)Gal(b1-3)[Fuc(a1-4)]GlcNAc(b1-2)Man(a1-6)]Man(b1-4)GlcNAc(b1-4)GlcNAc
In short: as §1

[34] = biological target: Gal(a1-3)Gal(b1-4)Glc
In short: as §1

[35] = biological target: Gal(a1-3)Gal(b1-4)GlcNAc
In short: as §1

[36] = biological target: Gal(a1-3)Gal(b1-4)GlcNAc(b1-3)GalNAc
In short: as §1

[37] = biological target: Gal(a1-3)Gal(b1-4)[Fuc(a1-3)]GlcNAc
In short: as §1

[38] = biological target: Gal(a1-3)Gal(b1-4)[Fuc(a1-3)]GlcNAc(b1-2)Man(a1-3)[Gal(a1-3)Gal(b1-4)[Fuc(a1-3)]GlcNAc(b1-2)Man(a1-6)]Man(b1-4)GlcNAc(b1-4)GlcNAc
In short: as §1

B1: Lmo1413 (Listeria monocytogenes), Q8Y783 (protein)
chain: MKHAKKSLFTFIIFMTILSITFNPFSAKAAPLMLNLPAPQVDQLYIGDDYITGKLQQEVPMHYPGNAAYVLFNNKQYNITDYTVENDVNFRLKLPKTLEAGDTLNYFTITGNVLDPVAYPGQESYKLAGPFSPIEKANIQVNYVDETNQTLATSDTLSGKLGETYTTSPKAIDGYQVKETPTNATGTYTTNTETIQINYVYEKTAVEGANVSVEYINEATNESIAPTETLSGKIGTTFQAEVKEIDGYELSQVPSNQSGTYTDQTQSVIFKYKKITTPDEVAKDVTVTYKDTKGNQLADPVILKGDIGSTFETEAKSFKGYKLTKTPSNHSSVFTSDSQEVEYVYSKDDAVITPPVTPVNPDKPIINPVKPVNPATSTVPNKNISKKNTTKTVNQTGKTSTALQLPKTGDSENNLPLIIGVSLLISGVYIFTTRRKRVK
Q: B1 was tested. Which “glycan array binding signal (z-score)” value [1] did it give?
A: Its value is 0.276.

Q: And the “glycan array binding signal (z-score)” value [2]?
A: The value was -0.095.

Q: And the “glycan array binding signal (z-score)” value [3]?
A: The value was -0.179.

Q: What about the “glycan array binding signal (z-score)” value [4] of the same binder?
A: The value was -0.205.

Q: What about the “glycan array binding signal (z-score)” value [5] of the same binder?
A: The value was -0.212.

Q: What about the “glycan array binding signal (z-score)” value [6] of the same binder?
A: Its value is -0.122.

Q: And the “glycan array binding signal (z-score)” value [7]?
A: The value was -0.15.

Q: What about the “glycan array binding signal (z-score)” value [8] of the same binder?
A: Its value is -0.11.

Q: What about the “glycan array binding signal (z-score)” value [9] of the same binder?
A: The value was 0.005.

Q: What about the “glycan array binding signal (z-score)” value [10] of the same binder?
A: The value was 0.245.

Q: What about the “glycan array binding signal (z-score)” value [11] of the same binder?
A: The value was 0.533.

Q: And the “glycan array binding signal (z-score)” value [12]?
A: Its value is 0.025.

Q: What about the “glycan array binding signal (z-score)” value [13] of the same binder?
A: Its value is -0.022.

Q: What about the “glycan array binding signal (z-score)” value [14] of the same binder?
A: Its value is -0.211.

Q: What about the “glycan array binding signal (z-score)” value [15] of the same binder?
A: The value was -0.136.

Q: What about the “glycan array binding signal (z-score)” value [16] of the same binder?
A: Its value is -0.118.

Q: What about the “glycan array binding signal (z-score)” value [17] of the same binder?
A: Its value is -0.204.

Q: What about the “glycan array binding signal (z-score)” value [18] of the same binder?
A: The value was -0.245.

Q: And the “glycan array binding signal (z-score)” value [19]?
A: The value was -0.161.

Q: What about the “glycan array binding signal (z-score)” value [20] of the same binder?
A: The value was 0.175.

Q: What about the “glycan array binding signal (z-score)” value [21] of the same binder?
A: The value was 0.131.

Q: And the “glycan array binding signal (z-score)” value [22]?
A: Its value is -0.263.

Q: What about the “glycan array binding signal (z-score)” value [23] of the same binder?
A: Its value is -0.231.

Q: What about the “glycan array binding signal (z-score)” value [24] of the same binder?
A: The value was -0.186.

Q: And the “glycan array binding signal (z-score)” value [25]?
A: Its value is -0.223.

Q: What about the “glycan array binding signal (z-score)” value [26] of the same binder?
A: The value was -0.197.

Q: And the “glycan array binding signal (z-score)” value [27]?
A: Its value is -0.225.

Q: And the “glycan array binding signal (z-score)” value [28]?
A: Its value is -0.149.

Q: And the “glycan array binding signal (z-score)” value [29]?
A: The value was -0.129.

Q: And the “glycan array binding signal (z-score)” value [30]?
A: The value was -0.219.

Q: What about the “glycan array binding signal (z-score)” value [31] of the same binder?
A: Its value is -0.199.

Q: And the “glycan array binding signal (z-score)” value [32]?
A: Its value is -0.222.

Q: What about the “glycan array binding signal (z-score)” value [33] of the same binder?
A: The value was 0.292.

Q: And the “glycan array binding signal (z-score)” value [34]?
A: Its value is -0.205.

Q: What about the “glycan array binding signal (z-score)” value [35] of the same binder?
A: Its value is -0.229.

Q: What about the “glycan array binding signal (z-score)” value [36] of the same binder?
A: Its value is -0.254.

Q: What about the “glycan array binding signal (z-score)” value [37] of the same binder?
A: Its value is -0.228.

Q: And the “glycan array binding signal (z-score)” value [38]?
A: Its value is 0.065.
